Assay results reported in the supplement of paper PMC10477191.
± gives the standard deviation of the averaged measurements. This is one part of the list.

system: Drosophila virilis; assay: attraction index (odor vs solvent trap) (index (-1 to 1)); higher = more attraction to the odorant; details: test temperature 23 °C; odor dose: 10^-2 dilution in mineral oil
Protocol: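 Two-choice trap assay at 23 °C and 70% humidity. Starved adult flies (20 per box, 4-6 days old) chose between a trap with odorant (2 µl at 10^-2 in 200 µl mineral oil) and a solvent trap; counts were taken after 24 h.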

SMILES	attraction index
COC(=O)c1ccccc1O [methyl salicylate]	0.454 ± 0.23
CC(C)OC(=O)c1ccccc1 [isopropyl benzoate]	0.00695 ± 0.4
CCOC(=O)C(C)O (stereo not drawn) [ethyl lactate]	0.268 ± 0.43
CCOC(=O)CC(C)O (stereo not drawn) [ethyl 3-hydroxybutyrate]	0.58 ± 0.39
C=CC(O)CCCCC (stereo not drawn) [1-octen-3-ol]	-0.258 ± 0.5
CC(=O)CCC=C(C)C [6-methyl-5-hepten-2-one]	-0.666 ± 0.29
CC(=O)c1ccccc1 [acetophenone]	-0.466 ± 0.5
CCCCCC(C)=O [2-heptanone]	0.052 ± 0.25
COc1ccccc1O [guaiacol]	-0.704 ± 0.15
CC(=O)C(C)O (stereo not drawn) [acetoin]	0.593 ± 0.26
CCCCCC(=O)OCC [ethyl hexanoate]	0.0404 ± 0.35
CCCCCOC(C)=O [pentyl acetate]	-0.0558 ± 0.38
CC(=O)OC/C=C(\C)CCC=C(C)C [geranyl acetate]	-0.235 ± 0.3
CCCCCCO [1-hexanol]	0.22 ± 0.54
COc1cccc(OC)c1O [2,6-dimethoxyphenol]	-0.25 ± 0.53
CCCCCCOC(C)=O [hexyl acetate]	-0.744 ± 0.25
CCCC(=O)OCc1ccccc1 [benzyl butyrate]	0.468 ± 0.28
COC(=O)c1ccccc1 [methyl benzoate]	-0.395 ± 0.27
